Results from PubChem BioAssay AID1159614 (National Center for Advancing Translational Sciences (NCATS), 2016).
The campaign covered roughly 45,000 compounds. About 65 (0.1%) were called active. The call rests on the fitted dose curve; in most records, active means well fitted activation curve with a large enough effect; inconclusive means small, poorly fitted or top-dose-only effect; inactive means no such curve, though single readings can be large or run the other way. The list shows a part of the results.

What follows are compounds tested against Galactocerebrosidase (Homo sapiens) (UniProt P54803) (assay: A Novel Cell-Based Assay to Identify Small Molecules for B -Galactocerebrosidase). Details: 145M-Twi-hGALC-G270D cells (Twitcher mouse brain line with human GALC G270D), HMU-beta-Gal fluorescence, 48 h; series mostly up to 57.5 µM; activation: at the top concentration.
How it was run: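 Brain-derived Twitcher mouse 145M-Twi cells stably expressing human GALC-G270D or wild-type GALC, treated live, then residual GALC activity read by fluorescence of HMU-b-Gal substrate (0.1 mM final) in citrate-phosphate buffer pH 5.2 with sodium taurocholate. Signal increase indicates enhancement.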
Further: 0% is about no effect; nearly all actives have a fitted effect of over 65% in size.

Chain of UniProt P54803 (P54803 whole entry, looked up): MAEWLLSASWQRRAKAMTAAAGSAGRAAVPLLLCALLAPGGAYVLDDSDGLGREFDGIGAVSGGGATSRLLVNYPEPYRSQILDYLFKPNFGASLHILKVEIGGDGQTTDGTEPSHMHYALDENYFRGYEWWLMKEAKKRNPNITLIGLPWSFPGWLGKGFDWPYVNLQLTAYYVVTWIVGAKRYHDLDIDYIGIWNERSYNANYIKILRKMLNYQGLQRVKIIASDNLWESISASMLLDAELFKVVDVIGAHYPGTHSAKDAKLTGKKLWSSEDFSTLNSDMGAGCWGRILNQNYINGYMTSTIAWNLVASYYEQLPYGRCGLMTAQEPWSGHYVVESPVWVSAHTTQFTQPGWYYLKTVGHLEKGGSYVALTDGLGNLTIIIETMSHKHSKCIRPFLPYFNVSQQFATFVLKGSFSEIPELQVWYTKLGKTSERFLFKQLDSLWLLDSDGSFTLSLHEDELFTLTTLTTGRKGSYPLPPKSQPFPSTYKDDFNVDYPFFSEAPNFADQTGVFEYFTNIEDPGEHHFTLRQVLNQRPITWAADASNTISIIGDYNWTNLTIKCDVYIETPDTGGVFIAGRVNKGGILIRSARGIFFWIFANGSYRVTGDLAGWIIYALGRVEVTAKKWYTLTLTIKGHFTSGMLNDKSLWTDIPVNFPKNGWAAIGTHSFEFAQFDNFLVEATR

activation, inactive:
Cc1ccc(-c2cc3ncc4c(n3n2)-c2cc(C)ccc2OC4)cc1 -12.8%
Cc1cc(C)c2c(=O)cc(CSCC(=O)Nc3ccccc3Cl)[nH]c2c1 -9.94%
CCOC(=O)C1=C(CN2CCC(C)CC2)NC(=O)NC1c1ccc(F)cc1 (stereo not drawn) -8.99%
Cc1ccc2nc(N3CCN(c4cccc(Cl)c4)CC3)c(-n3nc(C)cc3C)nc2c1 -13.1%
Cc1cccc(Oc2nc3c(C)cccn3c(=O)c2/C=C(\C#N)c2nc3ccccc3[nH]2)c1 -21.8%
COc1cc(Cl)c(NC(=O)CCS(=O)(=O)c2cc3c(cc2Cl)NC(=O)CO3)c(OC)c1 -11.8%
COc1ccc(OC)c2sc(N3CCN(C(=O)C(C)(C)C)CC3)nc12 -4.62%
COc1cc(-c2cc(OC)c3c(C)oc(C)c3c(=O)c2)ccc1OC(=O)c1ccccc1Cl 1.83%
COc1ccc(CNS(=O)(=O)c2cnc(N)nc2)c(OC)c1 2.01%
Cc1ccc2c(Sc3ccc(Cl)cc3)c(C(=O)N3CCC(C)CC3)[nH]c2c1 -11%
CCN(CC)CCNC(=O)c1ccc(Cn2c(SCc3ccccc3)nc3cccnc32)cc1 -17.8%
CS(=O)(=O)c1ccc(-c2nnc(NC(=O)c3ccc4c(c3)OCCO4)o2)cc1 -16.3%
COc1ccccc1CNC(=O)C1CCC(CNS(=O)(=O)c2ccc3c(c2)CCCC(=O)N3)CC1 (stereo not drawn) -9.29%
COCCCNC(=O)c1ccc(NC(=O)c2nsc3ccccc23)cc1 -22.8%
Cc1ccc(N2C(=O)CSC23C(=O)N(CC(=O)NCc2ccccc2)c2ccccc23)cc1C (stereo not drawn) -21.8%
CNC(=O)c1c(NC(=O)c2ccc(S(=O)(=O)N3CCC(C)CC3)cc2)sc2c1CCC2 18.2%
Cc1cccc(C)c1OCC(=O)NCC1(N(C)C)CCCCC1 -5.02%
COc1ccc(CNC(=O)c2ccc(N3CCCC3)c(NC(=O)NCc3ccc(F)cc3)c2)cc1 -24.6%
CCOc1cc(CNC(=O)c2sc3ncnc(N(C)C4CCCCC4)c3c2C)ccc1OC -1.47%
CC(=O)c1ccc(NC(=O)Cn2cc(S(=O)(=O)Cc3cccc(Cl)c3)c3ccccc32)cc1 -10.5%
CCc1nc2ccccc2n1CCCCOc1ccc(C)cc1 -15.3%
CCC1CN(C(=O)N2CCC(C(=O)NCCN(CC)CC)CC2)c2cc(C)ccc2O1 (stereo not drawn) -6.84%
Cc1ccc(N(CC(=O)Nc2cccc(Cl)c2)S(=O)(=O)c2cccs2)cc1 -9.11%
CCN(Cc1ccccc1)S(=O)(=O)c1ccc2c(c1)CC(C)N2C(=O)C1CCC1 (stereo not drawn) -16.7%
Oc1ccc(/C=C/c2cc(O)cc(O)c2)cc1 -11.2%
CC(=O)C1=C(c2ccc(Cl)cc2)N(C(C)=O)n2c(nnc2C2CCCCC2)S1 0.526%
Cc1ccc(Cl)cc1N(C)C(=O)c1cn(C2CCCCC2)c(=O)c2c1c1ccccc1n2C -14.5%
COc1cccc(CNC(=O)c2cc3c(=O)oc4ccc(C)cc4c3s2)c1 -22.2%
Cc1ccc2onc(CC(=O)Nc3ccc(C(C)C)cc3)c2c1 -16.1%
O=c1c2oc3ccccc3c2n(Cc2ccccc2F)c(=O)n1Cc1ccccc1 -15.2%
Cc1ccc2c(c1)N(CCC(=O)NCc1ccccc1Cl)C(=O)CO2 -6.6%
CCOc1ccc(OCC)c(NS(=O)(=O)c2ccc(-c3coc(C)n3)cc2)c1 -22.6%
Cn1c(=O)[nH]c(=O)c2c1nc(NCCc1ccccc1)n2Cc1ccc(F)cc1 -18.1%
COc1ccc(NC(=O)c2c(NC(=O)c3ccc(Br)cc3)sc3c2CCCC3)cc1 8.73%
COc1ccc(-c2nnc(SCc3cccc(Cl)c3)o2)cc1 -1.32%
CC(=O)N1CCC(N(Cc2ccc(C)o2)C(=O)Nc2ccc(C)cc2)CC1 -8.57%
CCOc1ccccc1NC(=O)Cc1noc2ccc(C)cc12 -14.3%
CCOc1ccc2nc(NC(=O)c3nc(SC)ncc3Cl)sc2c1 -16%
COc1cc(NC(=O)c2cn(C3CCCC3)c(=O)c3c2c2ccccc2n3C)cc(OC)c1OC -17.1%
Cc1ccc(O)c(NC(=O)c2cc(-c3ccccc3O)no2)c1 -17.4%
Cc1cc(NC(=O)Nc2nnc(N(C)Cc3ccccc3)s2)ccc1Br -15.7%
Cn1cc(S(=O)(=O)N2CCOCC2)cc1C(=O)Nc1ccc(Cl)c(C(F)(F)F)c1 -4.59%
COc1cccc(C2C(C(=O)Nc3ccc(C)cc3C)=C(C)Nc3nc4ccccc4n32)c1OC (stereo not drawn) -3.04%
COc1ccc2nc(N(Cc3cccnc3)C(=O)C3CCCCC3)sc2c1 -3.25%
COc1ccc(N2CCN(CCCNC(=O)Cn3c(-c4cccs4)cc4ccccc43)CC2)cc1 -12.6%
CCOc1ccc(CNS(=O)(=O)c2ccc(-c3coc(C)n3)cc2)cc1 -7.26%
Cc1nc2ccc(S(=O)(=O)N(C)CC(=O)Nc3cccc(C(F)(F)F)c3)cc2s1 1.69%
CCOC(=O)c1cc(S(=O)(=O)N2CCN(c3ccccc3F)CC2)[nH]n1 -6.11%
CCCCNC(=O)c1cccc(-n2c(C)nc3cccnc32)c1 -17.4%
CC(NC(=O)C1CCN(c2nc3ccccc3nc2C(F)(F)F)CC1)c1ccccc1 (stereo not drawn) -4.1%
CCOc1cc(C(=O)N2CCn3c4c(c5cc(C)ccc53)CCCC42)cc(OCC)c1OCC (stereo not drawn) -10.1%
COc1ccc(N(C(=O)c2cccc(C)c2)S(=O)(=O)c2ccc(Cl)cc2)cc1 -18.2%
Fc1ccc2c(c1)-c1nc(-c3ccccc3)cc(-c3ccccc3)c1CO2 -10.5%
CCCCN1C(C(=O)c2ccccc2)=C(OC(C)=O)c2ccccc2S1(=O)=O -12.5%
CN(C)c1ccc(CNC(=O)CCS(=O)(=O)c2ccc3c(c2)oc(=O)n3C)cc1 -12.4%
COc1ccc(NC(=O)CNC(=O)Cn2c(C)cc3ccccc3c2=O)cc1OC -13.1%
O=C(Nc1sc2c(c1C(=O)N1CCCCC1)CCCC2)c1ccccc1Cl -13%
Cc1noc(Cn2c(=O)c3cc4c(cc3n(CC(=O)Nc3ccccc3Br)c2=O)OCO4)n1 -14.5%
Cc1ccc2c(=O)cc(C(=O)Nc3sc4c(c3C(=O)NCc3ccccc3)CCCC4)oc2c1C -12.7%
O=C(CN1C(=O)CCc2cc(S(=O)(=O)N3CCOCC3)ccc21)Nc1cccc(C(F)(F)F)c1 -3.87%
CCOc1cccc(C(=O)Nc2cc(-c3ccc(C)cc3)no2)c1 -21.2%
CCCCCCOc1ccc(C2C(=O)N(C3CCCCC3)CC(=O)N2CCCC)cc1 (stereo not drawn) -2.06%
CCCS(=O)(=O)N1CCCC(C(=O)NCCOC)C1 (stereo not drawn) -3.37%
Cc1ccccc1CNC(=O)CN(c1cccc(C)c1C)S(C)(=O)=O 7.35%
CCCCN(CCCC)C1=C(C(=O)c2ccccc2)N(C)S(=O)(=O)c2ccccc21 -0.485%
CCOc1ccc(-c2nc(Cn3ccn4nc(-c5ccc(OCC)c(Cl)c5)cc4c3=O)c(C)o2)cc1 14.5%
COc1ccccc1/C=C/c1nc(C#N)c(NCCc2ccccc2)o1 -9.06%
Cc1ccccc1Nc1cc(C(=O)NCc2cccs2)c2ccccc2n1 -9.92%
C=C(C)Cn1c(=O)c2c(nc3n2CCN3c2ccc(F)cc2)n(C)c1=O -11.4%
CCOc1ccc(NCc2cccn2-c2nnc(N3CCC(C(=O)NCCOC)CC3)s2)cc1 -5.57%
Cc1cc(=O)n2nc(N3CCC(C(=O)NCc4ccc(F)cc4)CC3)sc2n1 -12.2%
COc1ccc(Nc2ncc(C(=O)N3CCN(c4ccc(F)cc4)CC3)c3ccccc23)cc1 -5.59%
COc1ccc(C)cc1N(C)C(=O)c1c2c(nc3ccccc13)C(=O)N(C1CCCCC1)C2 -14.7%
COc1ccc(CNS(=O)(=O)c2ccc(-c3cnc(C4CC4)o3)cc2)cc1 -16.4%
Cc1cccc(OCCn2c(SCC(=O)O)nc3ccccc32)c1 -18.1%
CCOc1ccc(N(CC)S(=O)(=O)N2CCCC(C(=O)Nc3cc(Cl)ccc3OC)C2)cc1 (stereo not drawn) -10.9%
CCOC(=O)c1ccc(NC2SC(=O)N(Cc3cccc(C(=O)O)c3)C2=O)cc1 (stereo not drawn) -1.56%
COc1cc2nc(SCC(=O)Nc3ccccc3F)n3nc(-c4ccccc4)nc3c2cc1OC -20.6%
CCN(CC)CCNC(=O)c1c(C)[nH]c(/C=C2\C(=O)Nc3ccc(F)cc32)c1C -19.6%
COc1ccc(-c2nc3scc(CCNS(=O)(=O)c4ccc(NC(C)=O)cc4)n3n2)cc1 -9.98%
COc1ccccc1C(=O)N1CCN(Cc2cc(=O)oc3cc(C)ccc23)CC1 -9.46%
COc1ccc(-c2nc3ccc(NS(=O)(=O)c4ccc(Cl)cc4)cc3o2)cc1 -7.97%
Cc1ccc(CNC(=O)c2ccc(CSCc3ccccc3C)o2)cc1 -6.9%
CCOc1ccc(Cn2c(CNS(=O)(=O)c3cccc(Cl)c3)nc3cccnc32)cc1 -7.44%
CCc1ccc(NC(=O)CSc2nc3c(sc4ccccc43)c(=O)n2CCCOC(C)C)cc1 20.9%
Cn1c(=O)[nH]c2cc(-c3noc(-c4cccc(Cl)c4)n3)ccc21 0.979%
CCOc1cccc(C(=O)N(Cc2ccc(CC)cc2)C2CCS(=O)(=O)C2)c1 (stereo not drawn) -9.55%
CCCNC(=O)Cn1nc(-c2ccc(F)cc2)c2cnc3ccc(F)cc3c21 -16.8%
COc1ccccc1NC(=O)CSC1=Nc2ccccc2C2=NC(CCC(=O)NCc3cccs3)C(=O)N12 (stereo not drawn) -6.74%
COc1ccc(-n2cc(C(=O)NCc3ccccc3Cl)c3ccccc3c2=O)cc1 -3.54%
CCCCN(CC)C(=O)Cn1ncc2c3ccccc3n(CCC)c2c1=O -6%
CCC(C)NC(=O)c1cccc(NC(=O)c2nsc3ccccc23)c1 (stereo not drawn) -12.1%
CC(Sc1cn(CCNC(=O)c2ccccc2F)c2ccccc12)c1ccccc1 (stereo not drawn) -40.9%
CCN(CCCNC(=O)CSc1cc(=O)n(CC)c2ccccc12)c1cccc(C)c1 -7.43%
Cc1ccc(NC(=O)c2c(C)oc3nc(C)nc(N4CCCC4)c23)c(C)c1 -13.8%
Cc1ccc(C)c(OCC(=O)Nc2ccc(S(=O)(=O)Nc3onc(C)c3C)cc2)c1C -15.1%
CCC(C(=O)Nc1ccccc1OC)n1nc(C)c2sc3ccccc3c2c1=O (stereo not drawn) -3.67%
O=S(=O)(c1ccc(F)cc1)N(Cc1nc(-c2ccc(Cl)cc2)no1)C1CCCCC1 -8.21%
